± gives the standard deviation of the averaged measurements. Laboratory Escherichia coli strains with one amino-acid change in an essential protein, pooled on minimal glucose agar with carbenicillin or gentamicin at twice the control MIC (plus kanamycin and chloramphenicol for the plasmids), 48 h. Fold change of barcode share against drug-free plates; higher = less susceptible. Active = above 20 in both replicates (the paper's putatively resistant). '<' = one read or none on drug, '>' = one read or none on a drug-free plate. Shares are relative, so most strains fall below 1 when a few take over. Listed are strains with at least 15 reads on both drug-free plates, and hits; most hits rest on fewer reference reads. Replicate rank correlation about 0.5. Edits are read from barcodes.
B1: metG; numbered along this chain (parent)
chain: MTQVAKKILVTCALPYANGSIHLGHMLEHIQADVWVRYQRMRGHEVNFICADDAHGTPIMLKAQQLGITPEQMIGEMSQEHQTDFAGFNISYDNYHSTHSEENRQLSELIYSRLKENGFIKNRTISQLYDPEKGMFLPDRFVKGTCPKCKSPDQYGDNCEVCGATYSPTELIEPKSVVSGATPVMRDSEHFFFDLPSFSEMLQAWTRSGALQEQVANKMQEWFESGLQQWDISRDAPYFGFEIPNAPGKYFYVWLDAPIGYMGSFKNLCDKRGDSVSFDEYWKKDSTAELYHFIGKDIVYFHSLFWPAMLEGSNFRKPSNLFVHGYVTVNGAKMSKSRGTFIKASTWLNHFDADSLRYYYTAKLSSRIDDIDLNLEDFVQRVNADIVNKVVNLASRNAGFINKRFDGVLASELADPQLYKTFTDAAEVIGEAWESREFGKAVREIMALADLANRYVDEQAPWVVAKQEGRDADLQAICSMGINLFRVLMTYLKPVLPKLTERAEAFLNTELTWDGIQQPLLGHKVNPFKALYNRIDMRQVEALVEASKEEVKAAAAPVTGPLADDPIQETITFDDFAKVDLRVALIENAEFVEGSDKLLRLTLDLGGEKRNVFSGIRSAYPDPQALIGRHTIMVANLAPRKMRFGISEGMVMAAGPGGKDIFLLSPDAGAKPGHQVK
B2: pgk; numbered along this chain (parent)
chain: MSVIKMTDLDLAGKRVFIRADLNVPVKDGKVTSDARIRASLPTIELALKQGAKVMVTSHLGRPTEGEYNEEFSLLPVVNYLKDKLSNPVRLVKDYLDGVDVAEGELVVLENVRFNKGEKKDDETLSKKYAALCDVFVMDAFGTAHRAQASTHGIGKFADVACAGPLLAAELDALGKALKEPARPMVAIVGGSKVSTKLTVLDSLSKIADQLIVGGGIANTFIAAQGHDVGKSLYEADLVDEAKRLLTTCNIPVPSDVRVATEFSETAPATLKSVNDVKADEQILDIGDASAQELAEILKNAKTILWNGPVGVFEFPNFRKGTEIVANAIADSEAFSIAGGGDTLAAIDLFGIADKISYISTGGGAFLEFVEGKVLPAVAMLEERAKK
B3: yidC; numbered along this chain (parent)
chain: MDSQRNLLVIALLFVSFMIWQAWEQDKNPQPQAQQTTQTTTTAAGSAADQGVPASGQGKLISVKTDVLDLTINTRGGDVEQALLPAYPKELNSTQPFQLLETSPQFIYQAQSGLTGRDGPDNPANGPRPLYNVEKDAYVLAEGQNELQVPMTYTDAAGNTFTKTFVLKRGDYAVNVNYNVQNAGEKPLEISSFGQLKQSITLPPHLDTGSSNFALHTFRGAAYSTPDEKYEKYKFDTIADNENLNISSKGGWVAMLQQYFATAWIPHNDGTNNFYTANLGNGIAAIGYKSQPVLVQPGQTGAMNSTLWVGPEIQDKMAAVAPHLDLTVDYGWLWFISQPLFKLLKWIHSFVGNWGFSIIIITFIVRGIMYPLTKAQYTSMAKMRMLQPKIQAMRERLGDDKQRISQEMMALYKAEKVNPLGGCFPLLIQMPIFLALYYMLMGSVELRQAPFALWIHDLSAQDPYYILPILMGVTMFFIQKMSPTTVTDPMQQKIMTFMPVIFTVFFLWFPSGLVLYYIVSNLVTIIQQQLIYRGLEKRGLHSREKKKS
B4: tsaC; numbered along this chain (parent)
chain: MNNNLQRDAIAAAIDVLNEERVIAYPTEAVFGVGCDPDSETAVMRLLELKQRPVDKGLILIAANYEQLKPYIDDTMLTDVQRETIFSRWPGPVTFVFPAPATTPRWLTGRFDSLAVRVTDHPLVVALCQAYGKPLVSTSANLSGLPPCRTVDEVRAQFGAAFPVVPGETGGRLNPSEIRDALTGELFRQG

Variants of: B1
Experiment: barcode share on antibiotic plates over drug-free plates; higher = less susceptible
Conditions: with Escherichia coli (laboratory strain); antibiotic: carbenicillin; 2× MIC (3.1 µg/mL)
Description: (§1)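 A pool of E. coli strains, each edited to carry one amino-acid change in an essential protein, was grown for 48 h on minimal glucose agar with or without antibiotic; strain barcodes were sequenced; mean of two replicates.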

| Variant | fold change of barcode share |
| --- | --- |
| L496D | 0.3 ± 0.025 |
| L496W | 0.416 ± 0.14 |
| W306Q | 9.85 ± 0.4 |
| W306A | 2.34 ± 0.96 |

Same assay, conditions: with Escherichia coli (laboratory strain); antibiotic: gentamicin; 2× MIC (MIC 0.45 µg/mL)

| Variant | fold change of barcode share |
| --- | --- |
| L496D | < 0.0141 |
| L496W | < 0.0138 |

Variants of: B2
Experiment: as above
Conditions: with Escherichia coli (laboratory strain); antibiotic: gentamicin; 2× MIC (MIC 0.45 µg/mL)
Description: as §1

| Variant | fold change of barcode share |
| --- | --- |
| V78Q | 0.00544 ± 0.0021 |
| V78D | 0.0106 ± 0.0079 |
| V78W | < 0.00548 |
| V78A | 0.0122 ± 0.0052 |
| V78P | 0.0845 ± 0.091 |
| V189D | 0.0691 ± 0.067 |
| V189W | 0.384 ± 0.44 |
| L201A | 0.0158 ± 0.0068 |
| L201Q | < 0.00914 |
| M138D | 0.0115 ± 0.002 |
| M138A | 0.00452 ± 0.004 |
| L204A | 0.0306 ± 0.026 |
| L204Q | < 0.00504 |
| L204P | 0.0314 ± 0.026 |
| L204W | < 0.0158 |
| V213Q | < 0.0188 |

Same assay, conditions: with Escherichia coli (laboratory strain); antibiotic: carbenicillin; 2× MIC (3.1 µg/mL)

| Variant | fold change of barcode share |
| --- | --- |
| V189W | 0.356 ± 0.25 |
| L201A | 0.588 ± 0.1 |
| L201Q | 0.452 ± 0.088 |
| M138D | 0.244 ± 0.058 |
| M138P | 1.51 ± 0.17 |
| M138A | 0.431 ± 0.018 |
| I188P | 1.41 ± 0.34 |
| I188Q | 0.527 ± 0.3 |
| I188W | 0.383 ± 0.033 |
| I188A | 0.366 ± 0.059 |
| L204A | 0.237 ± 0.0068 |
| L204Q | 0.287 ± 0.08 |
| V213Q | 0.415 ± 0.059 |

Variants of: B3
Experiment: as above
Conditions: with Escherichia coli (laboratory strain); antibiotic: carbenicillin; 2× MIC (3.1 µg/mL)
Description: as §1

| Variant | fold change of barcode share |
| --- | --- |
| L436W | 0.29 ± 0.075 |
| M471W | 0.316 ± 0.2 |
| M471P | 0.397 ± 0.009 |
| M471D | 0.349 ± 0.0077 |
| M471A | 0.231 ± 0.065 |
| M471Q | 0.288 ± 0.038 |
| V253P | 1.29 ± 1.4 |
| V253D | 0.48 ± 0.14 |
| V253A | 0.314 ± 0.0084 |
| I364D | 0.16 ± 0.067 |
| I364A | 0.342 ± 0.19 |
| I364W | 0.273 ± 0.026 |
| I364Q | 0.275 ± 0.21 |
| W308Q | 0.331 ± 0.062 |
| W308D | 0.368 ± 0.053 |
| W308P | 0.372 ± 0.036 |
| W308A | 0.352 ± 0.091 |
| L440P | 0.218 ± 0.093 |
| L440Q | 0.29 ± 0.063 |
| V523Q | 0.387 ± 0.03 |
| V523D | 0.402 ± 0.049 |
| V523A | 0.25 ± 0.076 |
| V523P | 0.288 ± 0.24 |
| V523W | 0.0731 ± 0.054 |

Same assay, conditions: with Escherichia coli (laboratory strain); antibiotic: gentamicin; 2× MIC (MIC 0.45 µg/mL)

| Variant | fold change of barcode share |
| --- | --- |
| L436W | < 0.0115 |
| M471W | 0.00449 ± 0.0011 |
| M471P | 0.00946 ± 0.004 |
| M471D | 0.00204 ± 0.00091 |
| M471A | 0.00614 ± 0.0055 |
| M471Q | 0.00503 ± 0.0038 |
| V253P | < 0.00442 |
| V253D | < 0.00822 |
| V253A | 0.00634 ± 0.0043 |
| I364D | < 0.00766 |
| I364A | < 0.00507 |
| I364W | < 0.00661 |
| I364Q | < 0.0057 |
| W308Q | 0.00407 ± 0.0039 |
| W308D | 0.00302 ± 0.003 |
| W308P | 0.0032 ± 0.0017 |
| W308A | 0.00573 ± 0.006 |
| L440P | < 0.0103 |
| L440Q | 0.0117 ± 0.012 |
| W346Q | 0.00614 ± 0.0059 |
| I361D | < 0.013 |
| I361Q | < 0.0144 |
| I361W | < 0.0175 |
| V523Q | < 0.0153 |
| V523D | < 0.0166 |
| V523A | < 0.00739 |

Variants of: B4
Experiment: as above
Conditions: with Escherichia coli (laboratory strain); antibiotic: carbenicillin; 2× MIC (3.1 µg/mL)
Description: as §1

| Variant | fold change of barcode share |
| --- | --- |
| V33W | 0.829 ± 0.53 |
| V33Q | 0.0728 ± 0.016 |
| I85P | 0.255 ± 0.1 |
| I85W | 0.225 ± 0.0044 |
| I85Q | 0.433 ± 0.06 |
| I85D | 0.358 ± 0.17 |
| I85A | 0.305 ± 0.062 |
| L127A | 0.42 ± 0.024 |
| L127W | 0.278 ± 0.013 |
| L127Q | 0.348 ± 0.13 |
| F97W | 0.308 ± 0.049 |

Same assay, conditions: with Escherichia coli (laboratory strain); antibiotic: gentamicin; 2× MIC (MIC 0.45 µg/mL)

| Variant | fold change of barcode share |
| --- | --- |
| V33W | < 0.011 |
| V33P | < 0.0138 |
| V33Q | < 0.0111 |
| V33A | < 0.0133 |
| I85P | < 0.00334 |
| I85W | 0.00533 ± 0.0012 |
| I85Q | 0.00892 ± 0.0053 |
| I85A | 0.0062 ± 0.0035 |
| L127A | < 0.0125 |
| L127W | < 0.0191 |
| F97W | < 0.00519 |
